# In all, about 33,000 sequences were measured (“E-score (-0.5 to 0.5)”: median about -0.053, highest 2% from about 0.37 on). The list shows a part of the results.
# Target: Hap1 (UniProt P0CE41)
# Assay: PBM E-score (8-mer binding enrichment) (E-score (-0.5 to 0.5)); higher = stronger / more preferred TF binding; most listed sequences are background and not binding sites
# Conditions: protein concentration: 200 nM; construct: GST-DNA-binding domain
# Outline: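 For each ungapped eight-base word taken together with its reverse complement, the Universal PBM Analysis Suite assigned an E-score. Binding data came from GST-tagged yeast transcription factors, applied at about 100-200 nM, on universal all-10-mer Agilent arrays made double-stranded by primer extension. Fluorescent anti-GST marked bound protein, and scans were normalised with masliner.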
# Chain of UniProt P0CE41 (P0CE41 whole entry): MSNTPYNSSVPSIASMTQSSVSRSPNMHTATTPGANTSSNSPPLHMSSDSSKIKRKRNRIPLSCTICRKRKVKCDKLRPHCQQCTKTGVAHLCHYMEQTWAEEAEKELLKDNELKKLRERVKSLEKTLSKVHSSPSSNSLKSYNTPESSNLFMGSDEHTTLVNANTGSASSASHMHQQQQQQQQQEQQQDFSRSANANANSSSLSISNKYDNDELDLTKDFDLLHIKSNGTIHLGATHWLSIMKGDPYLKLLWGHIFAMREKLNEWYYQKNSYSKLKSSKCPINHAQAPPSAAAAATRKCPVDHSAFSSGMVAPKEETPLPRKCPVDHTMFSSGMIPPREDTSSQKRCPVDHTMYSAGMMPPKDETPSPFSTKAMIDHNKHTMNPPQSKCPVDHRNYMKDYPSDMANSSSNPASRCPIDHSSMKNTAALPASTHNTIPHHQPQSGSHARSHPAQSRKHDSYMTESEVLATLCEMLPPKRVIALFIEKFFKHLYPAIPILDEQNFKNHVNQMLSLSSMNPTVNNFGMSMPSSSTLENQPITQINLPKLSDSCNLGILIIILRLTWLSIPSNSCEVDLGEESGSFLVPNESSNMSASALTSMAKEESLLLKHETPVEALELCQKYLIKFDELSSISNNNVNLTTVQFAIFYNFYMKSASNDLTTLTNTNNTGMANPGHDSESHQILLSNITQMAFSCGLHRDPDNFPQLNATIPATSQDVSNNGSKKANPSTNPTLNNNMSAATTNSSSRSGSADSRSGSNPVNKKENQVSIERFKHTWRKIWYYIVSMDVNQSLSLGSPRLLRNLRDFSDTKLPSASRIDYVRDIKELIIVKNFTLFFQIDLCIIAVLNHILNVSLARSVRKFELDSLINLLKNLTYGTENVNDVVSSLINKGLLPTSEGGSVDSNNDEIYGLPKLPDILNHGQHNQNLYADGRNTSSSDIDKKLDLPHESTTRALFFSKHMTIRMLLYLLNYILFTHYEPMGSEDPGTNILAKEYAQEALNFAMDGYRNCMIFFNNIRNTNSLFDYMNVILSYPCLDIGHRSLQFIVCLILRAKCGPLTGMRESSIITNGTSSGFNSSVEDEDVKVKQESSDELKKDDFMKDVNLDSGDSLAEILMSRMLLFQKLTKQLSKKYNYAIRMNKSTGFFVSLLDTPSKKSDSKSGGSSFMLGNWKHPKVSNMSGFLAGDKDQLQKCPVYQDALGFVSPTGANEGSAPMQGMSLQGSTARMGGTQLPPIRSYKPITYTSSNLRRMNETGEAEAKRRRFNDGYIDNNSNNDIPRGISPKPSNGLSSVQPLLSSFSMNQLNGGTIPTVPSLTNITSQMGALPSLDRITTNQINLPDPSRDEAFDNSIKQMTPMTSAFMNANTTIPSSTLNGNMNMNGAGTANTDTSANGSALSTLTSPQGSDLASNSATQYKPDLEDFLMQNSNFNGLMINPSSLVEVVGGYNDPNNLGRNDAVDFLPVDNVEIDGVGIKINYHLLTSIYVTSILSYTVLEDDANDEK
row,Sequence,PBM E-score
1,GACGTCTA,-0.144
2,ACAACCGG,0.243
3,TTCTGAAA,-0.118
4,CGAGTACC,0.108
5,AGGCGCAC,-0.0853
6,CACTTCAA,-0.016
7,AATGATAC,-0.12
8,AGAAGGGA,-0.327
9,GGAGGTTA,0.168
10,ACGGCCGC,0.228
11,GGAAGGGA,-0.00824
12,AAACAACT,-0.0616
13,CGGTCAGC,0.109
14,AAATTAGC,0.0409
15,CACCTCCC,-0.124
16,GTATATCA,-0.0364
17,GCCGAGCA,0.236
18,AAAGAGGA,-0.226
19,AACACTAA,-0.103
20,AACAACTG,-0.179
21,GGAAATGA,0.145
22,GATAAGGA,-0.0112
23,AATCACGT,-0.0116
24,CGCTAGCA,-0.128
25,GCACGAAC,-0.146

row,Sequence,PBM E-score
1,GGAATCAC,0.196
2,CCATCTAA,-0.139
3,AGAGCACG,-0.153
4,AGGCCGAG,0.303
5,TGGCTGAA,-0.171
6,ATGTCGGG,0.226
7,CAGATCGA,-0.145
8,ATGTCTAC,-0.222
9,AAAAAACT,-0.122
10,GATACATC,0.153
11,ATGTTGGA,0.0713
12,GCTTTCCA,-0.11
13,GGTTTTCA,0.0885
14,AAGATGCC,-0.13
15,CTCCAAAG,-0.0981
16,AGGGGAAC,-0.168
17,ACTTTAGC,0.00284
18,CCTACTCG,0.0324
19,CATAAACC,0.0764
20,AGGTATGG,-0.0822
21,CGCGTTAC,0.1
22,GACCTAGA,0.0321
23,CATAACGG,0.179
24,GTTAAAAC,0.137
25,TTCTAAAA,0.0164

row,Sequence,PBM E-score
1,TACTCTGA,-0.13
2,ATAATGCC,0.304
3,CATTTCCC,0.162
4,CGTCCTAA,-0.165
5,GCGTGCAC,-0.0196
6,ACGGGTCT,0.00119
7,AGGATTTC,0.0343
8,AAGTAGCA,-0.251
9,CCTGTCAG,-0.132
10,ACTGCGCC,-0.181
11,ATGGAACC,0.0821
12,ACCTTGTG,-0.181
13,ATAACAAA,0.0217
14,ACAACTTA,-0.138
15,AGACAGGG,-0.182
16,GTCCGTTA,0.444
17,AAAATACA,-0.209
18,CGAATAGC,-0.0379
19,GAAGGGCA,-0.162
20,CAGTCACC,-0.103
21,GTCATGCA,-0.193
22,CCCCCACG,-0.118
23,ACATCGGA,0.265
24,AGCCTGTG,-0.238
25,ATCTCTAC,-0.223

row,Sequence,PBM E-score
1,CACTGCCG,0.276
2,GACTTTAA,0.0403
3,AAATTAAG,-0.109
4,CTATAACC,0.0469
5,CCATGCGG,0.00787
6,AGTTATTA,0.00662
7,CTTCCTGC,-0.296
8,CAGTGCTA,-0.108
9,GTATAGGA,-0.289
10,GCCCCAGC,-0.105
11,AAGTTCCC,0.149
12,AGGACTTG,-0.144
13,GCGAAGGA,-0.0352
14,AAAGTCTA,-0.104
15,ATTCCACA,0.0968
16,GAGAACAA,0.0624
17,ACTGACGC,-0.244
18,CCCATCAA,-0.152
19,TGCTGCCA,-0.167
20,CACCTTCC,-0.0486
21,ACGGCCCA,0.141
22,CAGTCTAG,-0.259
23,AGTTTCCG,0.39
24,ATTGGGCA,-0.0872
25,CTAGGTCA,-0.288

row,Sequence,PBM E-score
1,ATCGCTGG,0.0577
2,ACGTAGAA,-0.0299
3,ATCATCTC,0.00897
4,TGAATCAA,0.00778
5,GTTCAACA,-0.0733
6,AAACACCA,-0.13
7,CACTGCAA,-0.13
8,CCATAAGG,-0.397
9,AATCGGCG,0.307
10,TAAGGTCA,-0.193
11,ACGTCGCT,-0.0288
12,GGTTCCAC,0.0307
13,CGCCCGGA,0.4
14,ACACACAA,-0.295
15,CGAGCGCC,0.195
16,CCGGTTCG,0.303
17,AGCTGAGG,-0.214
18,CGAGGACC,0.145
19,ACCCCTAA,-0.0223
20,ACAAAGGT,-0.15
21,ACAAACGT,-0.257
22,CCAACCGA,0.138
23,AGGCCCCA,-0.117
24,GATGCAGA,-0.231
25,CTAACGAG,-0.0333

row,Sequence,PBM E-score
1,CCTGAACG,0.0789
2,GGATCCTA,0.0327
3,AGCTTTAT,-0.118
4,GACATTGA,0.0583
5,AAATAGCA,-0.175
6,CTCGCGGA,0.22
7,CCATCCAG,-0.274
8,ATTTCCAA,0.0623
9,AGCTCACA,-0.29
10,CACTAGAC,-0.0552
11,ATAGTGCA,-0.0364
12,ACTGCTAA,-0.133
13,ACGAGCGT,-0.22
14,CGTCTGGA,-0.156
15,AGCCATGC,-0.107
16,AGATGGGG,-0.242
17,AACTTAGA,-0.127
18,AGGAAGTG,-0.091
19,GTACGTGA,-0.142
20,ATGAAATG,-0.0309
21,GGCTGAAC,0.128
22,GCGTCTTA,-0.0632
23,CCGACACC,0.23
24,ACGACGTA,-0.186
25,ATACGGTG,0.0257

row,Sequence,PBM E-score
1,AACTACCT,0.00606
2,GCGCAACA,-0.0625
3,CCGGTAAC,0.36
4,ACGATGCC,-0.0974
5,ATCAACAA,-0.207
6,CTAAAGCC,0.219
7,ATAAGTTG,-0.016
8,ACTTGACG,-0.305
9,ACCCTCTG,-0.199
10,CTTTGCGA,0.11
11,AAGGCCTA,-0.155
12,CGTGTTAG,-0.00291
13,GCATGTTA,0.109
14,GAAAGGTC,0.118
15,CGCGCTTA,0.209
16,CATTTACA,-0.16
17,CTAGTTTA,-0.145
18,AGGACGAG,-0.282
19,ACTCATAT,-0.12
20,AAAGTGGA,-0.0321
21,AATTGTGT,-0.192
22,GAGAGGCC,-0.0919
23,GGTTGATA,0.0382
24,TAGACAAA,-0.209
25,CCAGGCCA,-0.211

row,Sequence,PBM E-score
1,AATGTTCG,0.122
2,ATACTTTA,-0.0891
3,ATCTCTAG,-0.16
4,CCGTCCCC,0.144
5,CTGCATAC,-0.0402
6,CGGTACCC,0.0267
7,AACTGGCA,-0.0421
8,CCGCATGC,0.0869
9,CCCAGCAG,-0.0279
10,AACTCAAT,-0.0596
11,AACAATGG,-0.166
12,GCGAATAC,0.118
13,ACTATACT,-0.122
14,TTCCCCAA,-0.128
15,CAAGTTAA,-0.207
16,CTGTTCAA,-0.227
17,CACGCTTC,-0.0806
18,CCCATTTC,0.0399
19,GTGCGCTA,-0.163
20,AAATAGCT,-0.135
21,AAACGACT,-0.132
22,CTATCATA,-0.0975
23,CAGCATCA,-0.202
24,GCCATTTA,-0.126
25,TATTTTGA,-0.125

row,Sequence,PBM E-score
1,CAAAGGCA,-0.213
2,TCGTCCAA,-0.104
3,ATGGGAAT,-0.152
4,GCATGCCA,-0.2
5,ACGCGATA,0.124
6,CAGTTGGC,-0.114
7,GGCCATTA,0.075
8,CGTGTACC,0.11
9,CACATACG,-0.17
10,AATATCGG,0.443
11,GTTGCCAA,-0.147
12,CGGTCTGA,0.205
13,AATCGCAG,-0.193
14,ATTCTGGA,-0.106
15,CGAGGAAC,0.205
16,AGAAATGC,-0.00665
17,ACTATTAA,-0.148
18,ATTAGTCA,0.0699
19,AAGCAGCA,-0.149
20,GTGCCCCA,-0.204
21,AATTTCTA,-0.0789
22,AAACCCGG,0.454
23,TCAGACAA,-0.223
24,CAGATAAA,0.0431
25,GGGCGATA,0.179

row,Sequence,PBM E-score
1,AATGGAGT,-0.165
2,ACCTAGCT,-0.246
3,ATGTCCTG,0.00518
4,AAAATCAT,-0.202
5,ATTGGATG,-0.112
6,AGGTCTTC,-0.313
7,GATCTTTA,-0.02
8,GACCACCA,-0.0307
9,AACGTTAC,-0.017
10,AACTATAC,-0.0775
11,GCGATGCA,-0.109
12,GAAGATCA,-0.0794
13,CGAACAGA,0.117
14,ACCGACAT,0.194
15,GTCGCGAA,0.173
16,ACCAAACC,0.0716
17,GAGAGCCA,-0.245
18,CCGGGTTC,0.296
19,TATCCGAA,0.364
20,GCCAGGTA,-0.0688
21,CCAGGCTC,-0.126
22,AAGATCAC,-0.0442
23,AAGGGCTA,-0.143
24,CGAGGATC,0.0403
25,GGGTGACC,0.0667

row,Sequence,PBM E-score
1,CCTGGGAG,-0.117
2,CAAAACAA,-0.35
3,GACATTCC,-0.178
4,AGGCGCTA,-0.108
5,CCGCCCAC,0.135
6,CTTGCACC,0.00658
7,ACGCACAG,-0.00766
8,CACTCATG,-0.231
9,CACCGTTA,0.22
10,AGGCTAAA,-0.122
11,GTCTATGA,-0.0967
12,CCGGCAAG,0.269
13,AAATATTG,0.0436
14,AATGATTA,-0.134
15,AAGGATCC,-0.0435
16,CGTCTCGA,-0.0828
17,GGCGACAC,0.247
18,AGTTCATC,-0.0429
19,AAGGATGT,-0.211
20,GGCGGGTA,0.0692
21,ACGGCAGG,-0.0803
22,ATTTACTA,0.0715
23,GTATATGA,-0.0527
24,CCGGATAA,0.435
25,GGGTTCAA,-0.0262

row,Sequence,PBM E-score
1,ATTTTTCG,0.137
2,CTCTCCCA,-0.17
3,GTTGGAGA,-0.195
4,GTTGTGAA,-0.271
5,ACGGGAAT,0.314
6,CTATTGTC,-0.0302
7,ACCAAGTA,-0.248
8,TCCTCTCA,-0.35
9,GATGGAAA,-0.041
10,CTGTTCGC,-0.0655
11,GTTACTAA,-0.139
12,GCCCACCC,0.0486
13,CTGGGGTA,-0.0554
14,ATACCGTA,0.092
15,CTTAGATA,-0.059
16,GGGTCTAA,0.0639
17,GTCGGGTA,0.189
18,ATGGCCAT,-0.0437
19,AATCGCCT,0.0771
20,CCAAACTC,-0.0976
21,AACGCTCG,0.0839
22,GATGGGGC,0.0213
23,ACCCGCGC,0.192
24,CGACCTAC,-0.0851
25,GGCCTACA,0.0465

row,Sequence,PBM E-score
1,CCGTACAG,0.0165
2,AAAATCGC,0.0477
3,CGGGGAAC,0.201
4,TGTGTAAA,-0.0404
5,ACCGTAGT,0.197
6,AACAATCA,-0.0737
7,ATGAATTC,-0.0929
8,AAACCCAA,-0.0811
9,CAATCACA,-0.141
10,ATCATAGG,-0.0747
11,ACCCGAAG,0.248
12,CACTTTCC,0.134
13,GCGTTAGC,0.00463
14,TGTTCAAA,-0.113
15,AGGTGTCA,-0.00168
16,GGGTGCGA,-0.0585
17,CCATACAA,-0.152
18,GTTCAGGA,-0.158
19,AAAAATCA,-0.15
20,CCGAAAAA,0.398
21,GAGACGAC,-0.0276
22,CAAATTAC,0.0167
23,CTTAGGAA,-0.0607
24,GACGTTAA,0.149
25,TCAACTAA,-0.129

row,Sequence,PBM E-score
1,ACGATAGG,0.0214
2,AGAGTAAC,-0.0196
3,GTCTGGCA,0.0695
4,AACTTAGG,-0.269
5,TAGGGAAA,-0.056
6,CTGTGTAA,-0.235
7,AATCATAT,-0.127
8,CAGGATAC,-0.181
9,CTTTCATA,-0.048
10,AAGCCTCC,-0.0993
11,GTGACAAC,-0.0971
12,GCTAGAGA,-0.195
13,CCGGCGCC,0.359
14,AAAATAGG,0.0822
15,GAGATGAA,0.0406
16,GAAAGACC,0.0171
17,CGACTCTC,-0.0357
18,ACGGTTCG,0.215
19,CTTGATTA,-0.127

# Reference: the supplement of paper PMC3334620
